The values that follow come from the supplement of paper PMC11417369.

± gives the standard deviation of the averaged measurements. The list shows a part of the results.

The subject of this assay is PfAP2-EXP AP2 domain (GST-tagged). The assay is described as follows: gcPBM binding intensity (ln(normalized median fluorescence intensity)); higher = stronger DNA binding. The method, boiled down: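 An Agilent 4 × 180k array of primer-extended double-stranded 36-bp intergenic genomic probes, with negative controls, was incubated for 1 h with GST-tagged P. falciparum DNA-binding domains expressed in E. coli. Alexa488 anti-GST antibody detected bound protein, scanned at 488 nm. Binding intensity is the highest Masliner-normalised natural-log median intensity across replicate spots of either probe orientation.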
On to “ATTCAGTTATATAATACACACATATATTGACATTAT [CACACA_site2723]”, for which the “gcPBM binding intensity (ln)” value was found to be 8.56 ± 0.43. Take “ACAGTATCTGGTAGCTGTACGAGTCGTAGAGAGTAG [XGTACX_site2041]”: the “gcPBM binding intensity (ln)” value was found to be 9.07 ± 0.39.

Regarding “TAGTATAATATGAACACACACACACGCACAAAAAAA [CACACA_site7035]”, the “gcPBM binding intensity (ln)” value was found to be 8.89 ± 0.51. On to “TGTAAGCACATACAAACACACAACATTATTTTTATC [CACACA_site2186]”, for which the “gcPBM binding intensity (ln)” value stood at 8.66 ± 0.4.

On to “ATCGTTATATAAAAATGTACTTATAAATTGTATACA [XGTACX_site6664]”, for which the “gcPBM binding intensity (ln)” value was 8.52 ± 0.38.

For “CAACATTTGATAAACACACAGAAGTATAAATATATA [CACACA_site2365]”, the “gcPBM binding intensity (ln)” value stood at 8.61 ± 0.29. Consider “AAAGGAAAAATCCAAGTGCATTATTATTTTCACAAA [GTGCAC_site9995]”, for which the “gcPBM binding intensity (ln)” value was 8.55 ± 0.16. For the sequence “TTTTTTTTTTTTTGATGTACAATTAATATTATAAAA [XGTACX_site6969]”, the “gcPBM binding intensity (ln)” value is 8.49 ± 0.48.

With “CATTTTAAAGAAAATACACACAAAAATAGATATATA [CACACA_site6773]”, the “gcPBM binding intensity (ln)” value is 8.66 ± 0.38. For the sequence “AGTAATAAATAATTTACACACATATTATATCATCAC [CACACA_site1890]”, the “gcPBM binding intensity (ln)” value worked out at 8.56 ± 0.27. For “ATTTCTTTTTTATTGAGTACATATGACCATGTTCAA [XGTACX_site5365]”, the “gcPBM binding intensity (ln)” value was 8.95 ± 0.29. With “GAAAAAAATGAAATTAGTACTTATCTTAAATTTTTA [XGTACX_site1018]”, the “gcPBM binding intensity (ln)” value was found to be 7.96 ± 0.33. For “AAAAATATATAATAAAGTACACATAAATGAATAAAT [XGTACX_site329]”, the “gcPBM binding intensity (ln)” value is 8.9 ± 0.12. In the case of “TGATAACCAAAAAGGGGTACATACACAAAAAAATAC [XGTACX_site1254]” it was 9.12 ± 0.49; in that of “AACAACATTTGATAAACACACAGAAGTATAAATATA [CACACA_site5327]”, 8.72 ± 0.42; in that of “TACTTATTAGACTATTGTACATACATTATTAATATT [XGTACX_site7849]”, 8.73 ± 0.31.

Turning to “TAAAAAATTAAGCAACGTACAAATGAAAAGTATAAT [XGTACX_site1058]”, the “gcPBM binding intensity (ln)” value was 9.2 ± 0.5.

On to “TAACAATAACTTTATACACACATAATATAAATATAT [CACACA_site7635]”, for which the “gcPBM binding intensity (ln)” value is 8.23 ± 0.56. For the sequence “TAAAATTTTAACAAAAAAAAAAAAAAAAAAAGAAAA [CACACA_negctrl_site1335]”, the “gcPBM binding intensity (ln)” value was determined as 8.15 ± 0.6. Consider “ATAACAAAATAATAATGTACGTATAAATATAATTTA [XGTACX_site6049]”, for which the “gcPBM binding intensity (ln)” value came to 8.57 ± 0.4.

As to “ATAAAGAAAAATAGAAGTACATATATGCATGTTAAT [XGTACX_site4480]”, the “gcPBM binding intensity (ln)” value amounted to 9.14 ± 0.5. “AACAATAAAAATAATTGTACAAGTCTAAAAAAAATT [XGTACX_site20]”: the “gcPBM binding intensity (ln)” value is 8.51 ± 0.31. “TACGTATTATAAATATGTACATATAATATGTATATA [XGTACX_site468]”: the “gcPBM binding intensity (ln)” value amounted to 8.22 ± 0.23.

Turning to “TATATCATCATGTATGTACACACATACATATATTAT [CACACA_site8387]”, the “gcPBM binding intensity (ln)” value was 8.51 ± 0.35. For the sequence “CAAAAACATACCTACACACACAATATGTATATATAA [CACACA_site3514]”, the “gcPBM binding intensity (ln)” value came out at 8.37 ± 0.48.

In the case of “TTGTTATGTTTTATTTGTACGTAGGTTTCTATCAAA [XGTACX_site7636]”, the “gcPBM binding intensity (ln)” value was determined as 8.87 ± 0.5. In the case of “AAAATATAGTAACACATACACACATATATATTTATA [CACACA_site2504]” it was 8.5 ± 0.49; in that of “AAATTGAAATATTCCTGTACACATTTTGAAAACTTA [XGTACX_site6101]”, 8.44 ± 0.38. Consider “TATTAAACTAAATGTAGTACATACACAAAAGAAACC [XGTACX_site606]”, for which the “gcPBM binding intensity (ln)” value amounted to 9.29 ± 0.51.

In the case of “TGTTTGAATATAATCACACATTTATATAAAAAGTTA [CACACA_site5237]”, the “gcPBM binding intensity (ln)” value worked out at 8.15 ± 0.46. Regarding “TCTTTTTGCATGTGTGTGCGCACAAAATACACAAAA [GTGCAC_site9718]”, the “gcPBM binding intensity (ln)” value stood at 8.96 ± 0.12. Regarding “TTATGAAAATATTTTTTTCGTTTGATGTATATGTTT [CACACA_negctrl_site1556]”, the “gcPBM binding intensity (ln)” value is 8.29 ± 0.49.

Turning to “AAAAAATATAAATATGTAAAAAGAGAAAAAAAAAAG [GTGCAC_negctrl_site9]”, the “gcPBM binding intensity (ln)” value was found to be 8.71 ± 0.53. Turning to “TGAAAATGGGAACCGTGTACAGGGCAGTTATAGGGG [XGTACX_site2950]”, the “gcPBM binding intensity (ln)” value was 9.4 ± 0.59.

With “TATAAACATAAAACCAGTACATATATATTTTTCTTC [XGTACX_site212]”, the “gcPBM binding intensity (ln)” value turned out to be 8.29 ± 0.28. For “ATATTTAATTCATCATGTACACAAATAAGAAACAAA [XGTACX_site8076]”, the “gcPBM binding intensity (ln)” value worked out at 8.96 ± 0.23. For “ATCATTTTGTGTTCAAGTACATAATGTTTTACACAA [XGTACX_site3565]”, the “gcPBM binding intensity (ln)” value amounted to 8.61 ± 0.4. Turning to “TACCAAAAAAAAAAAATAATAATAAAAAAAAAAAAA [TGCATGCA_negctrl_site11]”, the “gcPBM binding intensity (ln)” value is 8.18 ± 0.22. In the case of “AACGAAGCATAAAATGTTATGTATATATATAAATAT [TGCATGCA_negctrl_site304]” it was 8.49 ± 0.43; in that of “GCAAAACATTTTTAAAATAAAAATAATAAAATATAT [CACACA_negctrl_site219]”, 8.34 ± 0.39; in that of “ATGTGGAAATAGAGCACACATATATATAATATATAT [CACACA_site884]”, 8.74 ± 0.36. With “CATACATTATAAGATACATGCATATATCTGAACATA [TGCATGCA_site797]”, the “gcPBM binding intensity (ln)” value came out at 8.8 ± 0.23. As for “ATATATTATATAAAAAGTACTAAAATAGTAAGATGT [XGTACX_site7493]”, the “gcPBM binding intensity (ln)” value came out at 8.97 ± 0.45. In the case of “TATTCATTAAACCATACACACATAATTTTTTTATAA [CACACA_site4618]” it was 8.24 ± 0.36; in that of “GTGTGCCAAATTAGCACACACATATATACATGAATT [CACACA_site7346]”, 8.62 ± 0.28.
